Experimental data published in the supplement of paper PMC11741623.
This is one part of the list. Interaction screen of human proteins with wild-type SARS-CoV-2 proteins by split-DHFR complementation in yeast, 1 µg/mL methotrexate. Value = fitness of the pair (three or more lineages) minus that of the viral protein without a human partner, on a scale set by negative (0) and fused positive (1) controls, mean of up to three cultures; higher = more likely to interact. Active = false discovery rate below 0.05 (one-sided t-test) in at least one culture. Nearly all pairs are not hits, and differences among them are mostly noise (correlation between cultures about 0.3); most hits were seen in one culture only. Human sequences are the Swiss-Prot entries looked up by gene name; the clone may be another isoform. NSP2 values were corrected by the authors for a growth advantage. Listed are human proteins with a hit and a random twelfth of the others.

B1: DEFB121, Q5J5C9 (protein)
chain: MKLLLLLLTVTLLLAQVTPVMKCWGKSGRCRTTCKESEVYYILCKTEAKCCVDPKYVPVKPKLTDTNTSLESTSAV
B2: IL37, Q9NZH6 (protein)
chain: MSFVGENSGVKMGSEDWEKDEPQCCLEDPAGSPLEPGPSLPTMNFVHTSPKVKNLNPKKFSIHDQDHKVLVLDSGNLIAVPDKNYIRPEIFFALASSLSSASAEKGSPILLGVSKGEFCLYCDKDKGQSHPSLQLKKEKLMKLAAQKESARRPFIFYRAQVGSWNMLESAAHPGWFICTSCNCNEPVGVTDKFENRKHIEFSFQPVCKAEMSPSEVSD
B3: HTN3, P15516 (protein)
chain: MKFFVFALILALMLSMTGADSHAKRHHGYKRKFHEKHHSHRGYRSNYLYDN

target: SARS-CoV-2 M; assay: yeast fitness gain over the viral ORF with no human partner (scaled fitness); higher = more likely to interact
Description: (§1)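 Split mouse DHFR complementation in pooled diploid yeast: human ORFeome clones carry one fragment and viral ORFs the other; barcoded lineages compete in 1 µg/mL methotrexate and fitness is read by barcode sequencing in up to three cultures.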

| Binder | yeast fitness gain |
| --- | --- |
| B1 | inactive: -0.211 |
| B2 | inactive: 0.0239 |
| B3 | inactive: -0.00678 |

target: SARS-CoV-2 N; assay: as above
Description: as §1

| Binder | yeast fitness gain |
| --- | --- |
| B1 | inactive: 0.0554 |

target: SARS-CoV-2 NSP1; assay: as above
Description: as §1

| Binder | yeast fitness gain |
| --- | --- |
| B1 | inactive: -0.0302 |
| B3 | inactive: -0.00997 |

target: SARS-CoV-2 NSP10; assay: as above
Description: as §1

| Binder | yeast fitness gain |
| --- | --- |
| B1 | inactive: -0.0415 |
| B3 | inactive: 0.0831 |

target: SARS-CoV-2 NSP12; assay: as above
Description: as §1

| Binder | yeast fitness gain |
| --- | --- |
| B1 | inactive: 0.0586 |
| B2 | inactive: 0.0795 |
| B3 | inactive: -0.115 |

target: SARS-CoV-2 NSP13; assay: as above
Description: as §1

| Binder | yeast fitness gain |
| --- | --- |
| B1 | inactive: -0.0192 |
| B2 | inactive: 0.0123 |
| B3 | inactive: 0.0299 |

target: SARS-CoV-2 NSP2; assay: as above
Description: as §1

| Binder | yeast fitness gain |
| --- | --- |
| B1 | inactive: -0.224 |
| B2 | inactive: -0.0902 |
| B3 | inactive: -0.158 |

target: SARS-CoV-2 NSP6; assay: as above
Description: as §1

| Binder | yeast fitness gain |
| --- | --- |
| B1 | inactive: 0.0139 |
| B2 | inactive: 0.00678 |

target: SARS-CoV-2 NSP7; assay: as above
Description: as §1

| Binder | yeast fitness gain |
| --- | --- |
| B1 | inactive: 0.0604 |
| B2 | inactive: -0.00449 |

target: SARS-CoV-2 ORF10; assay: as above
Description: as §1

| Binder | yeast fitness gain |
| --- | --- |
| B1 | inactive: 0.0338 |
| B2 | inactive: -0.051 |
| B3 | inactive: -0.0464 |

target: SARS-CoV-2 ORF3A; assay: as above
Description: as §1

| Binder | yeast fitness gain |
| --- | --- |
| B1 | inactive: -0.00923 |
| B3 | inactive: 0.113 |

target: SARS-CoV-2 ORF3B; assay: as above
Description: as §1

| Binder | yeast fitness gain |
| --- | --- |
| B1 | inactive: -0.0671 |
| B2 | inactive: -0.0163 |
| B3 | inactive: 0.011 |

target: SARS-CoV-2 ORF6; assay: as above
Description: as §1

| Binder | yeast fitness gain |
| --- | --- |
| B1 | inactive: -0.0113 |
| B2 | inactive: 0.00982 |
| B3 | inactive: -0.0118 |

target: SARS-CoV-2 ORF7A; assay: as above
Description: as §1

| Binder | yeast fitness gain |
| --- | --- |
| B1 | inactive: -0.0337 |
| B2 | inactive: -0.0346 |
| B3 | inactive: 0.025 |

target: SARS-CoV-2 ORF7B; assay: as above
Description: as §1

| Binder | yeast fitness gain |
| --- | --- |
| B1 | inactive: 0.0193 |
| B2 | inactive: 0.151 |

target: SARS-CoV-2 ORF8; assay: as above
Description: as §1

| Binder | yeast fitness gain |
| --- | --- |
| B1 | inactive: 0.0198 |
| B2 | inactive: -0.117 |
| B3 | inactive: -0.017 |

target: SARS-CoV-2 ORF9B; assay: as above
Description: as §1

| Binder | yeast fitness gain |
| --- | --- |
| B1 | inactive: 0.000484 |
| B2 | inactive: -0.0788 |
| B3 | inactive: 0.0684 |

target: SARS-CoV-2 ORF9Bwu (the 73-codon ORF); assay: as above
Description: as §1

| Binder | yeast fitness gain |
| --- | --- |
| B1 | inactive: 0.155 |

target: SARS-CoV-2 S; assay: as above
Description: as §1

| Binder | yeast fitness gain |
| --- | --- |
| B1 | inactive: 0.00969 |
| B3 | inactive: -0.0214 |

target: SARS-CoV-2 NSP16; assay: as above
Description: as §1

| Binder | yeast fitness gain |
| --- | --- |
| B2 | inactive: -0.0209 |
| B3 | inactive: -0.0538 |

target: SARS-CoV-2 NSP14; assay: as above
Description: as §1

| Binder | yeast fitness gain |
| --- | --- |
| B3 | inactive: 0.147 |

target: SARS-CoV-2 NSP4; assay: as above
Description: as §1

| Binder | yeast fitness gain |
| --- | --- |
| B3 | inactive: -0.107 |

target: SARS-CoV-2 NSP5; assay: as above
Description: as §1

| Binder | yeast fitness gain |
| --- | --- |
| B3 | inactive: -0.0716 |

target: SARS-CoV-2 NSP8; assay: as above
Description: as §1

| Binder | yeast fitness gain |
| --- | --- |
| B3 | inactive: -0.0323 |
